In PMC4336329 (PLoS ONE, 2015):
Screen size: about 310,000 compounds; about 2,200 (0.71%) showed an effect of 50% or more. The effect is printed as a negative number. The list shows a part of the results.

Target: human ether-à-go-go-related gene (hERG) potassium channel (human, UniProt Q12809)
Assay: primary screen, population patch clamp on CHO cells stably expressing hERG

Sequence of human ether-à-go-go-related gene (hERG) potassium channel (Q12809 whole entry, looked up): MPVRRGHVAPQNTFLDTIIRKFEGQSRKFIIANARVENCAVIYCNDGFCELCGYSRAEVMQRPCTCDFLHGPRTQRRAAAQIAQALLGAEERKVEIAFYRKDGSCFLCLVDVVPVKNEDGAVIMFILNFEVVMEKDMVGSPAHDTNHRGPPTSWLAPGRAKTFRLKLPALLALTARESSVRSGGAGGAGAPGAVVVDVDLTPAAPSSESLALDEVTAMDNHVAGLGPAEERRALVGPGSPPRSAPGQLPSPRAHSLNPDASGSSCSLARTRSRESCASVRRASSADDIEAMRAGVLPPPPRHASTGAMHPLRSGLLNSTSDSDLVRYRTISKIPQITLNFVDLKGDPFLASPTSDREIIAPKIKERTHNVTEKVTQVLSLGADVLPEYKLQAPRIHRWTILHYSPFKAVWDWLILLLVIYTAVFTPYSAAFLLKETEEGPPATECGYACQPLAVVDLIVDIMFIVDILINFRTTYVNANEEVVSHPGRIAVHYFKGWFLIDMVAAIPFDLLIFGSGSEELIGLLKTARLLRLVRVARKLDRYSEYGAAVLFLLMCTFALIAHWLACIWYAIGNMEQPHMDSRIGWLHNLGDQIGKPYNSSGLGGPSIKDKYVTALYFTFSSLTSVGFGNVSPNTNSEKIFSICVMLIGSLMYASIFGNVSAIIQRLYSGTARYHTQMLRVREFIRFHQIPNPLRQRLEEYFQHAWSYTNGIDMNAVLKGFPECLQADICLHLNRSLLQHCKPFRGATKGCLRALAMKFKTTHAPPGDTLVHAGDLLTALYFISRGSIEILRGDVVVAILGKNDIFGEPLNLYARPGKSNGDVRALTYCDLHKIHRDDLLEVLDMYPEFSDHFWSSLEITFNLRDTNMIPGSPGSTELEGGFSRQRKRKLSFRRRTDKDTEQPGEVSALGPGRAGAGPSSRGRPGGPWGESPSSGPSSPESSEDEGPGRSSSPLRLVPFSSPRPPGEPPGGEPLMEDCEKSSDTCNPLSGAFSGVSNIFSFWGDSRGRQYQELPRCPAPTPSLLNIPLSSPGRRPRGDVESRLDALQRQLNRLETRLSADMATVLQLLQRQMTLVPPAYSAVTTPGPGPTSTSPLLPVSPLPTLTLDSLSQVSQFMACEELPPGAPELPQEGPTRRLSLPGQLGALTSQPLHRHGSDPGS

Row | Compound | hERG current change (%, negative = inhibition) at 1uM
1 | O=C(COC(=O)c1c2c(nc3ccccc13)CCCC2)c1cccs1 | 5.37%
2 | Oc1ccc(N=Nc2ccccc2-c2nn[nH]n2)c(O)c1 | 11.7%
3 | COc1ccc(N(CC(=O)Nc2ccc(OC)c(Cl)c2)S(=O)(=O)c2c(C)noc2C)cc1 | 0.616%
4 | COc1ccccc1OCCNC(=O)CCNC(=O)c1ccccc1Cl | 13.8%
5 | Cc1ccc(O)c(CO)n1 | 12.3%
6 | O=C(CCCn1c(=O)[nH]c2ccsc2c1=O)NCc1cccs1 | 12.9%
7 | COc1ccc(NC(=O)CN(C)C(=O)C(C)N2C(=O)c3ccccc3C2=O)cc1 (stereo not drawn) | -0.14%
8 | CC(C)(CNC(=O)Cc1ccc(Cl)cc1Cl)N1CCOCC1 | 8.48%
9 | COc1ccccc1-n1c(-c2ccc(NS(C)(=O)=O)cc2)n[nH]c1=S | 14.1%
10 | O=C(Nc1ccc(Nc2ccccc2)cc1)C1CC1 | -6.21%
11 | Cc1ccc(-c2cc(C(=O)N3CC(C)CC(C)C3)c3ccccc3n2)o1 (stereo not drawn) | 5.05%
12 | CCOc1ccc(N2CC(C(=O)Nc3cccc(S(=O)(=O)NC4=NCCC4)c3)CC2=O)cc1 (stereo not drawn) | 3.13%
13 | CC(=O)N1c2c(cc(Br)cc2S(=O)(=O)NCc2ccccc2)CC1C (stereo not drawn) | 4.34%
14 | CCOc1ccccc1-c1cc(C(=O)N/N=C/c2ccc(O)c(OC)c2)c2ccccc2n1 | -10.2%
15 | CC1CCCCC1NC(=O)CNC(=O)c1ccco1 (stereo not drawn) | 7.03%
16 | Nc1c(C(=O)NCc2ccc3c(c2)OCO3)nnn1-c1ccc(OC(F)(F)F)cc1 | 9.87%
17 | CN(/N=C/c1cc(Cl)ccc1O)C1=NS(=O)(=O)c2ccccc21 | 17.3%
18 | Cn1c(CN2CCN(c3ccc(Cl)cc3)CC2)nc2ccccc21 | -4.19%
19 | CSC1=N/C(=C\c2ccccc2Cl)C(=O)N1N(C)C | 1.86%
20 | Cc1cccc(NC(=O)COc2nsnc2N2CCOCC2)c1 | 9.24%
21 | COCCCNC(=O)C(=O)NCC1CCCN1S(=O)(=O)c1cccs1 (stereo not drawn) | -0.0536%
22 | COc1ccc(-c2onc(C)c2-c2ccc3c(c2)OCCO3)c(O)c1 | 5.16%
23 | COc1ccc(CCNC(=O)c2cc(COc3c(F)cccc3F)on2)c(OC)c1 | 2.31%

Row | Compound | hERG current change (%, negative = inhibition) at 1uM
24 | O=C(CCc1nc2ccccc2c(=O)[nH]1)OCC(=O)N1CCN(S(=O)(=O)c2ccccc2)CC1 | 8.41%
25 | COc1cc(CNC(C)(C)CO)cc(Br)c1OCc1ccc(Cl)cc1.Cl | 3.94%
26 | COc1ccc(N(CC(=O)NCCSC(C)(C)C)S(C)(=O)=O)c(OC)c1 | 16%
27 | COc1ccc(S(=O)(=O)n2oc(=O)cc2-c2ccccc2)cc1 | 3.95%
28 | CCOc1ccccc1N(CC(=O)N1CCC(C(N)=O)CC1)S(=O)(=O)c1ccc(SC)cc1 | 15%
29 | COc1cc(-c2nnn(CC#N)n2)ccc1OCc1ccccc1 | 5.82%
30 | O=C(Nc1ccccc1)C1=C[C@@H](c2ccc(Br)cc2)C[C@@H](OCCCCO)O1 | 8.56%
31 | CC1=NN(c2cccc(F)c2)C(=O)/C1=C/c1ccc(N(C)C)cc1 | 3.18%
32 | COc1ccc(-c2cc(-c3ccc(C)cc3)n[nH]2)c(O)c1 | 14.6%
33 | Cn1c(=O)oc2cc(S(=O)(=O)NCc3ccco3)ccc21 | 6.5%
34 | Cc1occc1C(=O)N/N=C/c1ccc(N(C)C)cc1 | 15.7%
35 | CCOC(=O)CC(=O)CSc1nc(CC)c(C)cc1C#N | 15%
36 | CN1CCN(C(=O)Nc2cccc3ccccc23)CC1 | 12.7%
37 | CC(=O)O[C@H]1C(=O)[C@@]2(C)C([C@H](OC(=O)c3ccccc3)[C@]3(O)C[C@H](O)C(C)=C1C3(C)C)[C@]1(OC(C)=O)CO[C@@H]1C[C@H]2O (stereo partly drawn) | 7.12%
38 | CC1c2cccn2CCN1S(=O)(=O)c1ccc(F)cc1 (stereo not drawn) | 3.57%
39 | Cc1ccc2c(c1)nnn2C1CCN(C(=O)c2ccccc2F)CC1 | 6.24%
40 | O=c1oc2ccccc2n1CSc1nc2ccccc2s1 | 9.16%
41 | COc1ccc(/C=N/N=C/c2ccc(OC)cc2)cc1 | 10.2%
42 | Cc1c(Cl)cccc1-n1ccnc1SCC(=O)O | 18.4%
43 | O=C(CN1CCC(n2nnc3cc(F)ccc32)CC1)NC1CC1 | 3.28%
44 | COc1ccc(C)cc1-n1c(SCC(=O)NCC2CCCO2)nc2c([nH]c3ccccc32)c1=O (stereo not drawn) | 2.13%
45 | Cc1ccccc1-c1noc(-c2ccc(Cl)cc2)n1 | 19.7%
46 | CCC(C)N(C)Cc1cccc(C2(O)CCN(S(=O)(=O)c3ccc(F)c(C)c3)CC2)c1 (stereo not drawn) | -71.2%

Row | Compound | hERG current change (%, negative = inhibition) at 1uM
47 | CCOC(=O)c1ccccc1N/C=C/C(=O)c1ccccc1 | 6.16%
48 | CSCCC(NC(=O)c1ccco1)C(=O)NCCc1ccc(F)cc1 (stereo not drawn) | 4.48%
49 | Cc1[nH]c2ccccc2c1/C=N/NC(=O)CNC(=O)c1ccc2c(c1)OCCO2 | 12.9%
50 | COCCN(CC(=O)Nc1cccc(C)c1C)C(=O)c1cc(-c2ccncc2)nc2ccccc12 | -7.99%
51 | CCOC(=O)C1CCCN(CC(=O)NC2CC2)C1.O=C(O)C(=O)O (stereo not drawn) | -5.28%
52 | Cc1sc(NC(=O)CS(=O)(=O)c2ccccc2)c(C#N)c1C | 8.45%
53 | COc1cccc(NC(=O)Cc2ccccc2)c1 | 12.6%
54 | S=C(NCC1CCCO1)N1CCc2ccccc2C1 (stereo not drawn) | 9.65%
55 | Cc1nc2c(-c3ccccc3)c(C)nn2c(C)c1CCC(=O)N1CCOCC1 | -13.1%
56 | CC1(C)Cc2nc3sc(C(N)=O)c(N)c3cc2CO1 | 12.7%
57 | O=C(Nc1nc2nccc(-c3ccccc3)n2n1)c1ccc(F)cc1 | 23.5%
58 | S=C(Nc1ccc(Br)cc1Cl)N1CCN(c2ccccn2)CC1 | -3.09%
59 | CCCOc1ccc(-c2c(C(=O)N/N=C(\C)c3ccco3)nnn2-c2nonc2N)cc1 | 16.7%
60 | COc1cnc(-c2ccccn2)nc1Sc1c(Cl)cccc1Cl | 9.34%
61 | C[C@H]1C(=O)O[C@@H]2CCN3CC=C(COC(=O)[C@](C)(O)[C@]1(C)O)[C@H]23 | 2.43%
62 | O=C(COc1cccc(OC(F)F)c1)Nc1ccc(SC(F)F)cc1 | 2.87%
63 | COc1ccc(-c2csc(N3C(=O)C4C5c6ccccc6C(c6ccccc65)[C@@H]4C3=O)n2)cc1 (stereo partly drawn) | 8.02%
64 | CC(C)CNC(=O)CN(C1CCCCC1)S(=O)(=O)c1ccccc1 | 8.23%
65 | O=C(CSc1n[nH]c(-c2cccnc2)n1)Nc1ccnc2ccccc12 | 5.98%
66 | CCS(=O)(=O)c1nc(S(=O)(=O)c2ccc(Cl)cc2)c(NCCN2CCOCC2)s1 | 7.96%
67 | Clc1ccc(-c2nnc3c4ccccc4nc(N4CCOCC4)n23)cc1Cl | -15.9%
68 | CCN1CCN(C(=O)CCN2C(=O)c3ccccc3C2=O)CC1 | 1.35%
69 | Cc1ccc2c(c1)N(CCC(=O)NC1CCCCC1)C(=O)CO2 | 22.6%

Row | Compound | hERG current change (%, negative = inhibition) at 1uM
70 | Cc1nc(C)n(C(C)CNS(=O)(=O)c2ccc(C)c(C)c2)n1 (stereo not drawn) | 18.2%
71 | O=C(O)/C=C/C(=O)Nc1ccc(Cl)cc1C(=O)c1ccccc1 | -2.2%
72 | Cc1ncc(CO)c2c1OC(C)(C)OC2 | 14.1%
73 | Cc1ccc(-c2nc3ccccc3c(C(=O)NCc3cccs3)c2C)cc1 | 5.24%
74 | Cc1ccc(OCCCC(=O)Nc2nnc(C3CCCO3)s2)c(C)c1 (stereo not drawn) | 7.57%
75 | OC(c1cc(-c2ccc(Cl)cc2)nc2ccccc12)C1CCCCN1 (stereo not drawn) | -6.99%
76 | COc1cc(C)nc(NC(=O)NC(=O)c2ccc(C(F)(F)F)cc2)n1 | 18%
77 | Cc1cc(C)n2nc(SCc3cccc(F)c3)nc2n1 | 11.8%
78 | COc1ccc(CNCCC2(C(C)C)CCOC(C)(C)C2)cc1 (stereo not drawn) | 3.31%
79 | CC(NS(=O)(=O)c1cccc(C(=O)NCc2ccncc2)c1)c1ccccc1 (stereo not drawn) | 9.66%
80 | Cc1cc(OCC(O)CN2C(C)CCCC2C)ccc1C(C)C (stereo not drawn) | 5.67%
81 | COc1ccc(NS(=O)(=O)c2ccc(-n3nnc4ccccc43)c([N+](=O)[O-])c2)cc1 | 3.82%
82 | S=C(NCc1ccco1)NCC1CCCO1 (stereo not drawn) | 0.9%
83 | Cc1ccsc1C(=O)NNC(=S)NCC(C)C | 6.97%
84 | COc1cc2c(cc1OC)C(C)N(CC(=O)Nc1ccc(S(=O)(=O)N3CCCC3)cc1)CC2 (stereo not drawn) | 11.9%
85 | CCOC(=O)CC(NC(=O)c1ccco1)c1ccccc1Cl (stereo not drawn) | 5.6%
86 | CC1CCN(C2=NC(=O)/C(=C/c3ccccc3F)S2)CC1 | 2.81%
87 | CC1=NCCN1CCNC(=O)Nc1cc(C)cc(C)c1 | 7.02%
88 | Cc1ccc(C(=O)C(C)Oc2ccc3ccc(=O)oc3c2)cc1 (stereo not drawn) | 11.5%
89 | Cc1noc(C)c1C(=O)Nc1nc2ccc(F)cc2s1 | 2.2%
90 | CCc1nnc(NC(=O)CSc2nnc(C)n2CC2CCCO2)s1 (stereo not drawn) | 11%
